According to the supplement of paper PMC3334620:
Whole data set: some 33,000 sequences, median “E-score (-0.5 to 0.5)” near -0.011, cut for the highest 2% near 0.28. Some of the results follow.

These sequences were tested against T1, Gcr1 (UniProt P07261) (assay: PBM E-score (8-mer binding enrichment) (E-score (-0.5 to 0.5)); higher = stronger / more preferred TF binding; most listed sequences are background and not binding sites). Conditions: protein concentration: 100 nM; construct: GST-full length.
T1 sequence: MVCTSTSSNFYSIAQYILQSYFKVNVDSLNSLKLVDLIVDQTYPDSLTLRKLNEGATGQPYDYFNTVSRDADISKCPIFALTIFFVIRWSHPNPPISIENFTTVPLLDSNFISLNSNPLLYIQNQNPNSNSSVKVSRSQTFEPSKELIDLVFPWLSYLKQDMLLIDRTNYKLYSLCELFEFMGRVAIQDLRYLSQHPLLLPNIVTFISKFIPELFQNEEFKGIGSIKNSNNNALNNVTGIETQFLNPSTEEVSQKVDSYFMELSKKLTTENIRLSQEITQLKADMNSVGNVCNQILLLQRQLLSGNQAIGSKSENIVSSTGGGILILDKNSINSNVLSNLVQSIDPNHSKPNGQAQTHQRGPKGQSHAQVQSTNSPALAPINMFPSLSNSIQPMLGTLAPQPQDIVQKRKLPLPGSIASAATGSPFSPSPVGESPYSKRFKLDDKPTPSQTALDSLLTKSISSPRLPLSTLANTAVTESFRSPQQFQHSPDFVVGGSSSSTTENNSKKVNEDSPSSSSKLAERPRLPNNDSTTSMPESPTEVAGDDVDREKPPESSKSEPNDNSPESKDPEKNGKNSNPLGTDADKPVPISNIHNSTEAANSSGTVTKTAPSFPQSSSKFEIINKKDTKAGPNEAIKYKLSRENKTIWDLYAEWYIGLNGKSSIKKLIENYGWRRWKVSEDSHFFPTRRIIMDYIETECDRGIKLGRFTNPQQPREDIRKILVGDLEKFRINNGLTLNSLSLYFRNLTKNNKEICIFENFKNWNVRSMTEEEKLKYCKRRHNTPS
Summary of the method: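 Yeast transcription factors carrying a GST tag, as full-length proteins or DNA-binding domains, were produced by PURExpress in vitro transcription/translation. About 100-200 nM protein was applied to universal all-10-mer Agilent arrays, double-stranded by primer extension on fresh or once-stripped slides. Bound protein was detected with fluorescent anti-GST, and scans were normalised with masliner. The Universal PBM Analysis Suite gave each ungapped eight-base word, pooled with its reverse complement, an E-score, a modified Wilcoxon-Mann-Whitney statistic.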

Sequence	PBM E-score
AAAGGTTC	0.0119
CAATGGTC	0.012
CAAATCCG	-0.00246
CGATCTAA	-0.0652
GGGGGACC	0.12
AACCCAGT	0.0996
ACAACTCC	-0.0782
GCGACTAC	0.0667
ACTGGCTG	0.13
CCATGCAA	0.157
AAAGCATT	-0.0337
CACTGCCA	0.0738
AAGGTGTA	-0.123
AATTAACA	0.182
TGGCGACA	0.128
TAAAACTA	-0.0014
ATCCGGGG	0.104
CAACCTAG	0.121
AGCCTGGG	-0.0302
AATGCTCC	-0.166
CAGTCCCA	0.0489
GTCGAAAA	-0.0199
ATAATGGC	-0.00297
AGAAGTTC	0.146
CTATACGC	0.0693

Sequence	PBM E-score
CTGCTTCC	0.177
ACGAAGTG	-0.091
ACAATTAT	0.176
ATTTGTGG	0.216
ACCAGACT	-0.0318
CCTAAAAA	0.165
TGGCAAAA	0.0138
CCAGTTAC	0.0958
ATCCCAGG	0.0709
CTCGTTCA	0.0147
GCGTTCAA	0.0424
CTTAAATC	0.0748
TCAAGTAA	-0.0856
ATAAGCCG	0.039
GCATCCTA	0.4
CAGGAGAC	-0.00153
CTTTGCAC	-0.0561
ACATAGCG	0.0113
GCCGTTAA	0.118
AAGAGGTC	0.052
ATCAACTG	0.0446
ACAGCCTA	-0.0457
GCCCCAAC	0.0665
AGGTCATC	-0.355
AATGTTCC	-0.0252

Sequence	PBM E-score
CCCGTCGG	-0.151
GTTCACTA	-0.153
CAATTGCG	-0.0501
ATATAGTG	0.17
ACTCGCAC	-0.0744
ACCGCACG	-0.134
CCCCTATC	0.108
GAAGAGCC	-0.0968
AGTCCGTA	-0.0556
ATGGTATC	0.215
GTTATTGA	0.0372
CAATGGGA	-0.00746
ACGATTCC	0.12
ATGGTGTC	0.135
AGTATCTA	-0.103
AGTGTGCG	-0.157
CCTTAGGC	-0.301
GGATCTGA	0.0524
ATTCGTCA	0.0357
ACCCTGAC	-0.137
GACGCATC	0.198
GTCACTTA	-0.04
TTAATTAA	0.0576
ATGGGCCG	-0.0697
CAATCGCA	-0.253

Sequence	PBM E-score
ACGACTCA	-0.0601
CGCCCACG	-0.0227
CCGCTGTA	0.0833
GGGAAGTA	-0.111
GGTCCTAA	0.162
TCCCCGAA	0.0268
CATAGGCA	0.0323
CGCCTAGA	0.0708
TCCCTTAA	0.0293
GTTGCAGA	0.0564
TTCTACAA	0.0935
GATTATTA	0.136
AATTTAGA	0.108
TAATACAA	-0.0478
CCGGGTCC	0.144
AAGATTAT	-0.169
TCCGCCCA	-0.179
GGTGGCTA	0.0293
AAATCCCA	0.107
CCAACCGC	-0.0449
GAATGGAC	-0.187
CCGTATTA	0.00072
AAATATGC	-0.177
TAGGTATA	0.136
ACTCGGAC	-0.0825

Sequence	PBM E-score
ATGACGAA	-0.033
CTACCAGC	-0.0567
ACTACAGG	0.077
CAGAGGGC	-0.303
AGTATGAA	-0.0877
AGTTTGAG	0.177
AGCCAGTC	-0.0837
CCGTGGGC	-0.0724
AGAAGCGG	0.267
ACTAAGCT	-0.0155
CACCACCG	-0.0609
AGACTGCC	-0.197
CTTATAGC	-0.0453
CATCCAAC	-0.0403
AGGTACCC	0.0648
GACGTTGC	0.163
ATATGCGC	0.0648
ATATCATA	-0.0734
ATGAGGCA	-0.0656
GGCCGTGA	-0.26
ATAGGGGA	0.114
GCAGTCGC	-0.0933
CAAACTTG	0.00459
CAATGCTC	-0.174
ATTGTAAG	-0.0855

Sequence	PBM E-score
AATGCCGC	-0.178
CGGCACCG	0.143
GAACAACC	-0.0951
CACGACTC	0.107
TAGCTAGA	-0.132
AAGTACGG	0.0124
AACCCGGG	0.0515
GAGGGTGA	-0.0792
AAGTCCCC	-0.0218
CATAGTAG	0.138
CTATGAGC	-0.157
TCAACAAA	0.103
GTGCCTGA	0.0614
AACACATA	0.12
GAAAAGGC	-0.195
ATATGCCA	-0.148
AACCCGGT	-0.041
TACACCGA	0.0437
CTTGCTTA	-0.176
CAAGAGCA	-0.105
ATCCACCA	0.146
CCACGCAA	0.025
GAAGAGCA	-0.0362
ACGCGCAC	-0.0501
AATCCTGC	-0.188

Sequence	PBM E-score
AAAGAGAT	-0.117
TACAGATA	-0.0799
CCACCGAC	-0.189
TAGCTGCA	-0.0344
ATATGGGC	0.111
AAACGATG	0.0379
ACACGGTA	-0.0843
ACAACGGT	-0.182
ACTCGAGT	0.0795
CACCCAGC	-0.16
AACCCGTT	0.0945
GCTCAGAC	0.161
TAGTTGGA	0.138
AGACGGTA	0.039
TCGGCTAA	0.0565
AGAATGAA	0.0686
CGCCTCCC	0.0753
GAAGCTCA	0.224
AATTGGGG	0.235
AAAACGGG	0.134
AGGCAGCC	0.382
CAGTGGAA	0.244
